These results are taken from PubChem BioAssay AID1794741 (DTP/NCI, 2022).

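Cell lines were cultured in 96-well plates, exposed to a single compound concentration, and assessed for percent growth 48 hours later.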 Some entries of the source have several records that differ or are many. The list is limited to them. There may be further records. These are repeated runs of one drug, at the concentration stated with the values; each value is one run. Additions like (4×) count equal records among those shown.

This test deals with DLD-1 colon. The test is described as follows: NCI-60 one-dose screen, 48 h (100 = growth as untreated, 0 = no growth, -100 = all killed). The conditions noted are these: 2.5 mM. The method, then:
Growth inhibition of the DLD-1 human tumor cell line is measured as a screen for anti-cancer activity. Cells are grown in 96 well plates and exposed to the test compound for 48 hours. Compounds are tested at a single concentration, which is 10^-5 M for most compounds. The reported endpoint is percent growth (GI% or GIPRCNT), where numbers from 0 - 100% represent growth inhibition, and numbers from -100% - 0 represent cell death. For example, a value of 40 represents 60% growth inhibition. A value of 0 means no net growth occurred over the course of the experiment. A value of -40 indicates 40% of cells at the beginning of the experiment died by the end of the experiment. A value of -100 means all cells are dead at the end of the experiment.
NCI-60 Human Tumor Cell Lines Screen was performed using the standard one-dose NCI protocol, which is described in more detail at https://dtp.cancer.gov/discovery_development/nci-60/default.htm.
Compounds with GIPRCNT values below 10 were considered active. Activity score was based on GIPRCNT using the following formula: […]
Score is 0 for GIPRCNT values of 100 or above, 50 for GIPRCNT values of 0, and 100 for GIPRCNT values of -100.

For the molecule `O=c1[nH]cc(F)c(=O)[nH]1`, the growth (runs of 1991) is 52.1, 0.309, 12.6, 16.3, -25.8, 12.3, 5.56, 6.33, 13, 13.3, 5.46, 12.2, 15.8% and the growth (runs of 1992) is -43.3, -51.3, 3.46, 13.4 (2×), 11.7, 15.1, 7.29, 9.66, 21.9 (3×), 12, 18.5, 15.5, 16.4, 16.2, 24.1, 14.9, 17.9, 8.29, 14.6 (2×), 22.6 (2×), 12.4, 12.6, 96.5, 10.3 (2×), 29.7, 15.2 (2×), 15.9 (2×), 8.7, 10.6, 13 (3×), -7.8, 9.3, 13.9, 15.7, 9.47, 7.13, 11.5, 10.7 (2×), 14.5, 11.8, 14.1, 19, 17, 8.24, 0.952, -59.2, -59.4, -21.6, 9.48, 20.2, 17.1, 20.7, -2.46, 18.4, 23.8, 10.8, 3.34, 9.09, 9.77, 28.3, 8.46, 6.14, 8.43, 21.3, 12.5, 12.2, 3.61, 7.15, 24.4, 17.6, 5.93, 14.7, 14.3, 9.97, 41, 17.5%.
